A collection of fitness landscapes (doi:10.1126/science.1257360)
The other results are listed elsewhere or left out.

B1: PhoQ; a variant is named by its letters at X, in order, P23837 (parent)
chain: MKKLLRLFFPLSLRVRFLLATAAVVLVLSLAYGMVALIGYSVSFDKTTFRLLRGESNLFYTLAKWENNKLHVELPENIDKQSPTMTLIYDENGQLLWAQRDVPWLMKMIQPDWLKSNGFHEIEADVNDTSLLLSGDHSIQQQLQEVREDDDDAEMTHSVAVNVYPATSRMPKLTIVVVDTIPVELKSSYMVWSWFIYVLSANLLLVIPLLWVAAWWSLRPIEALAKEVRELEEHNRELLNPATTRELTSLVRNLNRLLKSERERYDKYRTTLTDLTHSLKTPLXXLQXXLRSLRSEKMSVSDAEPVMLEQISRISQQIGYYLHRASMRGGTLLSRELHPVAPLLDNLTSALNKVYQRKGVNISLDISPEISFVGEQNDFVEVMGNVLDNACKYCLEFVEISARQTDEHLYIVVEDDGPGIPLSKREVIFDRGQRVDTLRPGQGVGLAVAREITEQYEGKIVAGESMLGGARMEVIFGRQHSAPKDE

Variants of: B1
Test: enrichment ratio after two sorts for PhoP signalling (ratio (wild type AVST 3.29)); higher = more functional
Conditions: with PhoP (E. coli)

Variant | enrichment ratio
LMEA | ≤ 0.25
DFIS | ≤ 0.25
NPIK | ≤ 0.25
PAFY | ≤ 0.25
RGRY | ≤ 0.25
PTRD | ≤ 0.25
SQHF | ≤ 0.25
CSLL | ≤ 0.25
FDPD | ≤ 0.25
KDCK | ≤ 0.25
SQND | ≤ 0.25
QCGM | 9.92
NRKF | ≤ 0.25
PSIQ | ≤ 0.25
YAGF | ≤ 0.25
DHDP | ≤ 0.25
AKSH | 7.58
KNFW | ≤ 0.25
ASHF | ≤ 0.25
PKAM | ≤ 0.25
VYWQ | ≤ 0.25

Variant | enrichment ratio
SNDA | ≤ 0.25
WMPY | ≤ 0.25
QGEI | ≤ 0.25
NMRG | ≤ 0.25
HKCW | ≤ 0.25
MSPQ | ≤ 0.25
DQFP | ≤ 0.25
YKMA | ≤ 0.25
GFDN | ≤ 0.25
SAPR | ≤ 0.25
NVTP | ≤ 0.25
PSFF | ≤ 0.25
FNGM | ≤ 0.25
VVDK | ≤ 0.25
NFPF | ≤ 0.25
NDIV | ≤ 0.25
QSCV | 0.43
FIPG | ≤ 0.25
HHPF | ≤ 0.25
VPHE | ≤ 0.25
WFHK | ≤ 0.25

Variant | enrichment ratio
HPFR | ≤ 0.25
GNPF | ≤ 0.25
ERVC | ≤ 0.25
ASWG | ≤ 0.25
IWVS | ≤ 0.25
RWGG | ≤ 0.25
IPQV | ≤ 0.25
FAVG | ≤ 0.25
FWNV | ≤ 0.25
GFPA | ≤ 0.25
QTVW | ≤ 0.25
TLPD | ≤ 0.25
PRQE | ≤ 0.25
KNIA | ≤ 0.25
EEMT | ≤ 0.25
MELK | ≤ 0.25
DHDY | ≤ 0.25
WNLS | ≤ 0.25
FFPH | ≤ 0.25
NMLM | ≤ 0.25
NNPA | ≤ 0.25

Variant | enrichment ratio
MFLI | ≤ 0.25
EIPT | ≤ 0.25
TMRD | ≤ 0.25
PACR | ≤ 0.25
RTAM | ≤ 0.25
FHGQ | ≤ 0.25
GIAT | ≤ 0.25
DRCR | ≤ 0.25
FHIF | ≤ 0.25
VDST | ≤ 0.25
VLIK | ≤ 0.25
GNHA | ≤ 0.25
GSNH | ≤ 0.25
PVNN | ≤ 0.25
DRAF | ≤ 0.25
FGII | 0.857
MYVE | ≤ 0.25
TSCT | 18.9
VDVM | ≤ 0.25
RGTL | ≤ 0.25
DWQV | ≤ 0.25
